Inconclusive means that the source gave no clear call. Such entries were picked first, then a sample of the others. For part of these data: Potencies beside an inconclusive call are fits to weak or partial responses and may not hold up. The source made the active and inactive calls. Unless noted, calls come from the whole dose curve.
Tests used:
[1] = target: Peroxisome proliferator-activated receptor gamma (Homo sapiens) (UniProt P37231); assay: qHTS assay to identify small molecule antagonists of the peroxisome proliferator-activated receptor gamma (PPARg) signaling pathway (AID 743191); conditions: HEK293H PPARg-UAS-bla, beta-lactamase ratio, antagonist, 17 h; ratio activity, negative = inhibition: at 62.6 µM (top of the series) unless noted; note: nearly all actives have a fitted effect of over 30% in size; note: potency is the fitted concentration of half-maximal effect; for ratio activity, negative = inhibition: % is set by controls: 0 for no effect and ±100 for the full control effect
Method in brief: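 GeneBLAzer PPARg UAS-bla HEK293H cells carrying a UAS-driven beta-lactamase reporter were plated at 3000 cells/well, preincubated 5 h at 37C, then given compound for 17 h at 37C; LiveBLAzer B/G FRET substrate was read after 1 h at room temperature.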

[2] = qHTS assay to identify small molecule antagonists of the peroxisome proliferator-activated receptor gamma (PPARg) signaling pathway - cell viability counter screen (AID 743194; active = well fitted curve in the direction sought with a large enough effect in the repeat runs; inconclusive = weak or mixed curves; inactive = no such curve, though single readings can be large; an effect the other way counts as inactive or inconclusive; note: nearly all actives have a fitted effect of over 55% in size; note: potency is the fitted concentration of half-maximal effect); conditions: PPARg-bla HEK293H viability, CellTiter-Glo luminescence, 17 h; Potency: co-treated with 50 nM rosiglitazone unless noted; activity change, negative = cytotoxicity: at 62.6 µM (top of the series), co-treated with 50 nM rosiglitazone unless noted
Method in brief: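 PPARg-UAS-bla HEK293H cells were plated, rested 5 h at 37 C, then treated with compounds plus rosiglitazone (50 nM final) for 17 h at 37 C; viability was then read by CellTiter-Glo luminescence after 30 min at room temperature.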

[3] = qHTS assay for small molecule activators of the heat shock response signaling pathway (AID 743210; active = well fitted activation curve with a large enough effect in the signal ratio in the repeat runs, with a control signal flat, not every such curve was filed as active; inconclusive = weak or mixed curves; the % refers to the signal ratio; note: potency is the fitted concentration of half-maximal effect); conditions: HeLa HSE-bla reporter, beta-lactamase ratio, 5 h; activation: at 62.6 µM (top of the series)
Method in brief: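 HSE-bla HeLa cells (beta-lactamase reporter under heat shock response elements) were exposed to compounds for 5 h at 37 C, then loaded with LiveBLAzer B/G FRET substrate for 2.5 h at room temperature before fluorescence reading.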

[4] = qHTS assay to identify small molecule antagonists of the peroxisome proliferator-activated receptor delta (PPARd) signaling pathway - cell viability counter screen (AID 743213; active = well fitted curve in the direction sought with a large enough effect in the repeat runs; inconclusive = weak or mixed curves; inactive = no such curve, though single readings can be large; an effect the other way counts as inactive or inconclusive; note: nearly all actives have a fitted effect of over 50% in size; note: potency is the fitted concentration of half-maximal effect); conditions: PPARd-bla HEK293H viability, CellTiter-Glo luminescence, 17 h; viability change, negative = cytotoxic: at 62 µM (top of the series) unless noted
Method in brief: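 Luminescence from CellTiter-Glo, added after the bla read and incubated 30 min at room temperature, gives viability of HEK293H PPARd-bla cells exposed to compounds for 17 h at 37 C with 300 nM L165041.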

[5] = target: Vitamin D3 receptor (Homo sapiens) (UniProt P11473); assay: qHTS assay to identify small molecule antagonists of the vitamin D receptor (VDR) signaling pathway (AID 743223; active = well fitted inhibition curve with a large enough effect in the signal ratio in the repeat runs, not every such curve was filed as active; inconclusive = weak or mixed curves, or effect the other way; inactive = no such curve, though single readings can be large or run the other way; the % refers to the signal ratio; note: % is set by controls: 0 for no effect and ±100 for the full control effect); conditions: VDR-UAS-bla HEK293T, beta-lactamase FRET ratio, 16 h; activity change, negative = inhibition: at 61 µM (top of the series) unless noted
Method in brief: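 Beta-lactamase reporter read-out: FRET substrate fluorescence after 2 h at room temperature, following 16 h exposure of VDR-bla cells to test compound plus 3 nM (final) 1alpha,25-dihydroxyvitamin D3 agonist at 37C.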

[6] = qHTS assay to identify small molecule agonists of the endoplasmic reticulum stress response signaling pathway (AID 1159516; active = well fitted activation curve with a large enough effect in the signal ratio in the repeat runs, not every such curve was filed as active; inconclusive = weak or mixed curves, or effect the other way; the % refers to the signal ratio; note: potency is the fitted concentration of half-maximal effect); conditions: ESRE-bla HeLa, ER stress beta-lactamase reporter, 5 h; activation: at 61 µM (top of the series) unless noted
Method in brief: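 CellSensor ESRE-bla HeLa cells, 1,500 per well, plated overnight, then exposed to compounds for 5 hr at 37 C. Beta-lactamase reporter read with LiveBLAzer B/G FRET substrate after 2 hr at room temperature, 405 nm excitation, 460 and 530 nm emission.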

[7] = qHTS assay for small molecule agonists of the antioxidant response element (ARE) signaling pathway (AID 743202; active = well fitted activation curve with a large enough effect in the signal ratio in the repeat runs, not every such curve was filed as active; inconclusive = weak or mixed curves, or effect the other way; inactive = no such curve, though single readings can be large or run the other way; the % refers to the signal ratio; note: potency is the fitted concentration of half-maximal effect); conditions: HepG2 ARE-bla reporter, beta-lactamase FRET, 16 h; activation: at 73.3 µM (top of the series) unless noted
Method in brief: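 Read-out: LiveBLAzer B/G FRET substrate fluorescence after 2 h at room temperature, following 16 h compound treatment at 37 C of HepG2 cells carrying an ARE-driven beta-lactamase reporter.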

[8] = qHTS assay for small molecule agonists of the antioxidant response element (ARE) signaling pathway - cell viability counter screen (AID 743203); note: nearly all actives have a fitted effect of over 55% in size; note: potency is the fitted concentration of half-maximal effect
Method in brief: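 ARE-bla HepG2 cells were plated, rested 5 h at 37C/5% CO2, then exposed to compounds in DMSO for 16 h. Viability was read as CellTiter-Glo luminescence after 30 min at room temperature, in the same wells as the ARE screen.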

[9] = target: Peroxisome proliferator-activated receptor delta (Homo sapiens) (UniProt Q03181); assay: qHTS assay to identify small molecule agonists of the peroxisome proliferator-activated receptor delta (PPARd) signaling pathway (AID 743212); conditions: HEK293H PPARd-UAS-bla, beta-lactamase FRET ratio, 17 h; activation: at 62.6 µM (top of the series) unless noted; note: potency is the fitted concentration of half-maximal effect
Method in brief: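 GeneBLAzer PPARd UAS-bla HEK293H cells (beta-lactamase reporter under UAS control), plated and rested 5 h at 37 C, then exposed to compounds in DMSO at 37 C; LiveBLAzer B/G FRET substrate added, 2 h room temperature, fluorescence read.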

[10] = target: Peroxisome proliferator-activated receptor delta (Homo sapiens) (UniProt Q03181); assay: qHTS assay to identify small molecule antagonists of the peroxisome proliferator-activated receptor delta (PPARd) signaling pathway (AID 743215; active = well fitted inhibition curve with a large enough effect in the signal ratio in the repeat runs, not every such curve was filed as active; inconclusive = weak or mixed curves, or effect the other way; inactive = no such curve, though single readings can be large or run the other way; the % refers to the signal ratio;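 note: cells stimulated with agonist L165041 at 300 nM final during compound exposure; % is set by controls: 0 for no effect and ±100 for the full control effect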); conditions: HEK293H PPARd-UAS-bla, beta-lactamase FRET ratio, antagonist, 17 h; ratio activity, negative = inhibition: at 62 µM (top of the series) unless noted
Method in brief: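 PPARd-bla HEK293H cells (UAS-bla reporter) preincubated 5 h, then given compound plus 300 nM final L165041 agonist for 17 h at 37 C. Beta-lactamase activity read by LiveBLAzer B/G FRET substrate fluorescence after 2 h at room temperature.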

[11] = qHTS assay for small molecule activators of the heat shock response signaling pathway - cell viability counter screen (AID 743209; active = well fitted curve in the direction sought with a large enough effect in the repeat runs; inconclusive = weak or mixed curves; inactive = no such curve, though single readings can be large; an effect the other way counts as inactive or inconclusive; note: potency is the fitted concentration of half-maximal effect; nearly all actives have a fitted effect of over 50% in size); conditions: HSE-bla HeLa viability, CellTiter-Glo luminescence, 5 h; activity change, negative = cytotoxicity: at 62.6 µM (top of the series) unless noted
Method in brief: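 HSE-bla HeLa cells plated overnight, then exposed to Tox21 compounds (23 nL in DMSO) for 5 h at 37 C. After the bla reporter read, CellTiter-Glo was added in the same wells and luminescence read after 30 min at room temperature.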

[12] = target: Bile acid receptor (Homo sapiens) (UniProt Q96RI1); assay: qHTS assay to identify small molecule antagonists of the farnesoid-X-receptor (FXR) signaling pathway (AID 743217; active = well fitted inhibition curve with a large enough effect in the signal ratio in the repeat runs, not every such curve was filed as active; inconclusive = weak or mixed curves, or effect the other way; inactive = no such curve, though single readings can be large or run the other way; the % refers to the signal ratio; note: potency is the fitted concentration of half-maximal effect); conditions: HEK293T FXR-UAS-bla, beta-lactamase ratio, CDCA-stimulated, 16 h; activity change, negative = inhibition: at 62.6 µM (top of the series) unless noted
Method in brief: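 FXR-UAS-bla HEK 293T cells (beta-lactamase reporter) given compound plus chenodeoxycholic acid (50 uM final), 16 h at 37C. LiveBLAzer B/G FRET substrate added for 2 h at room temperature; fluorescence read.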

[13] = target: Vitamin D3 receptor (Homo sapiens) (UniProt P11473); assay: qHTS assay to identify small molecule agonists of the vitamin D receptor (VDR) signaling pathway (AID 743222); conditions: HEK293T VDR-UAS-bla, beta-lactamase FRET ratio, 16 h; activation: at 63.5 µM (top of the series) unless noted; note: % is set by controls: 0 for no effect and ±100 for the full control effect
Method in brief: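 VDR-bla cells plated 4 h at 37 C, then exposed to compounds for 16 h at 37 C. Beta-lactamase reporter activity measured by fluorescence after 2 h room-temperature loading with LiveBLAzer B/G FRET substrate.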

[14] = qHTS assay to identify small molecule agonists of the peroxisome proliferator-activated receptor delta (PPARd) signaling pathway - cell viability counter screen (AID 743211; active = well fitted curve in the direction sought with a large enough effect in the repeat runs; inconclusive = weak or mixed curves; inactive = no such curve, though single readings can be large; an effect the other way counts as inactive or inconclusive; note: potency is the fitted concentration of half-maximal effect; nearly all actives have a fitted effect of over 55% in size); conditions: PPARd-bla HEK293H viability, CellTiter-Glo luminescence, 17 h; activity change, negative = cytotoxicity: at 62.6 µM (top of the series) unless noted
Method in brief: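 Read-out: CellTiter-Glo luminescence, 30 min RT, measured in the same wells as the beta-lactamase reporter. Cells: GeneBLAzer PPAR delta UAS-bla HEK293H, 3000 cells/well, compound exposure 17 h at 37C.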

[15] = qHTS assay to identify small molecule agonists of the farnesoid-X-receptor (FXR) signaling pathway - cell viability counter screen (AID 743218; active = well fitted curve in the direction sought with a large enough effect in the repeat runs; inconclusive = weak or mixed curves; inactive = no such curve, though single readings can be large; an effect the other way counts as inactive or inconclusive; note: potency is the fitted concentration of half-maximal effect; nearly all actives have a fitted effect of over 45% in size); conditions: FXR-bla HEK293T viability, CellTiter-Glo luminescence, 16 h; viability change, negative = cytotoxic: at 62.6 µM (top of the series) unless noted
Method in brief: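 FXR-UAS-bla HEK 293T cells exposed to compounds for 16 h at 37C. Cytotoxicity read in the same wells by CellTiter-Glo luminescence after 30 min at room temperature, following the beta-lactamase FRET read.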

[16] = qHTS assay to identify small molecule antagonists of the farnesoid-X-receptor (FXR) signaling pathway - cell viability counter screen (AID 743221; active = well fitted cell-killing curve with a large enough effect in the repeat runs, not every such curve was filed as active; inconclusive = weak or mixed curves, or effect the other way; inactive = no such curve, though single readings can be large or run the other way; note: potency is the fitted concentration of half-maximal effect; nearly all actives have a fitted effect of over 50% in size); conditions: FXR-bla HEK293T viability, CellTiter-Glo luminescence, 16 h; activity change, negative = cytotoxicity: at 62.6 µM (top of the series) unless noted
Method in brief: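 HEK 293T FXR-bla cells, 5 h pre-incubation; compound + CDCA 50 uM final, 16 h, 37 C; beta-lactamase FRET read first, then CellTiter-Glo luminescence, 30 min RT.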

[17] = qHTS assay to identify small molecule agonists of the vitamin D receptor (VDR) signaling pathway - cell viability counter screen (AID 743224; active = well fitted curve in the direction sought with a large enough effect in the repeat runs; inconclusive = weak or mixed curves; inactive = no such curve, though single readings can be large; an effect the other way counts as inactive or inconclusive; note: % is set by controls: 0 for no effect and ±100 for the full control effect; nearly all actives have a fitted effect of over 50% in size)
Method in brief: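 VDR-bla cells, 4 h after plating, exposed to compounds for 16 h at 37C; viability then read in the same wells as CellTiter-Glo luminescence after 30 min at room temperature, following the bla FRET read.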

[18] = qHTS assay to identify small molecule antagonists of the vitamin D receptor (VDR) signaling pathway - cell viability counter screen (AID 743225; active = well fitted curve in the direction sought with a large enough effect in the repeat runs; inconclusive = weak or mixed curves; inactive = no such curve, though single readings can be large; an effect the other way counts as inactive or inconclusive); conditions: VDR-bla HEK293T viability, CellTiter-Glo luminescence, 16 h; viability change, negative = cytotoxic: at 61 µM (top of the series) unless noted
Method in brief: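 Viability counter screen run in the same wells as the beta-lactamase reporter assay: HEK 293T VDR-UAS-bla cells, 16 h compound exposure at 37C with 3 nM (final) 1-alpha,25-dihydroxyvitamin D3. CellTiter-Glo luminescence, 30 min, room temperature.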
Tags give direction and shape of the fitted curve or compound fluorescence and quenching.

Chain of UniProt Q03181 (Q03181 whole entry, looked up): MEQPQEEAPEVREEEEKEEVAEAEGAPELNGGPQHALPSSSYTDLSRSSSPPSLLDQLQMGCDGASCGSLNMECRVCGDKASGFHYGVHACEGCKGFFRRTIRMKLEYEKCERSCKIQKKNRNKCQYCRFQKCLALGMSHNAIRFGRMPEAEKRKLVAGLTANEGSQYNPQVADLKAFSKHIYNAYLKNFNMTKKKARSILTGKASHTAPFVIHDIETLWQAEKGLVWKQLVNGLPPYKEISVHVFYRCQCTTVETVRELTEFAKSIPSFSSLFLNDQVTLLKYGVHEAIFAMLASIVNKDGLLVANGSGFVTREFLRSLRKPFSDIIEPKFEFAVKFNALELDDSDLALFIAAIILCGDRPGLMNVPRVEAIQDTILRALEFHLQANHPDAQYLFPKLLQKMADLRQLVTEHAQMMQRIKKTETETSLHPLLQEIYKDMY
Chain of UniProt P11473 (P11473 whole entry, looked up): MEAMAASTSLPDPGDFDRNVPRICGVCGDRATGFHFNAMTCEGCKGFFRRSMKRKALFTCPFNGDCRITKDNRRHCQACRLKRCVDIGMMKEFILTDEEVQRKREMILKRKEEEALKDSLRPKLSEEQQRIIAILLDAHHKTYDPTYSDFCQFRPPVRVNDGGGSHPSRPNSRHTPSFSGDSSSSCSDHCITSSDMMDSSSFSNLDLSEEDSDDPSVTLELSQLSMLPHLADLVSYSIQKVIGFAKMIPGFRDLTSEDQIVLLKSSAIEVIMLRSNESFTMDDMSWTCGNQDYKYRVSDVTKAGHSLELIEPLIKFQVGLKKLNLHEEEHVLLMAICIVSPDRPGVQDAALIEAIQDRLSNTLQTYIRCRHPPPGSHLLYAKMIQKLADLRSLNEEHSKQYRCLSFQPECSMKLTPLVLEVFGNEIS
Chain of UniProt P37231 (P37231 whole entry, looked up): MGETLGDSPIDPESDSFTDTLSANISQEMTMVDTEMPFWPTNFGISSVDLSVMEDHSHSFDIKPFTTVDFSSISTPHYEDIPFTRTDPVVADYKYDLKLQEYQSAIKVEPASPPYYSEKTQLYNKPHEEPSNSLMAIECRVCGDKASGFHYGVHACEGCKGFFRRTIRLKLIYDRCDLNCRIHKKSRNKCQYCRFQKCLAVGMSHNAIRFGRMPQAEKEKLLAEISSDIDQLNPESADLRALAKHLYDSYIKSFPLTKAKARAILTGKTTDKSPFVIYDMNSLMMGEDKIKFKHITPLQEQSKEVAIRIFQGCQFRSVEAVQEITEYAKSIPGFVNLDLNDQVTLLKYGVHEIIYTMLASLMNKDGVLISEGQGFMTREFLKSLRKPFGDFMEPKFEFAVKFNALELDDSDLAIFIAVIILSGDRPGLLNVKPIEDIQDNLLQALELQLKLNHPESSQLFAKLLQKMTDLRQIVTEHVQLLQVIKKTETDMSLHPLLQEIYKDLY
Chain of UniProt Q96RI1 (Q96RI1 whole entry, looked up): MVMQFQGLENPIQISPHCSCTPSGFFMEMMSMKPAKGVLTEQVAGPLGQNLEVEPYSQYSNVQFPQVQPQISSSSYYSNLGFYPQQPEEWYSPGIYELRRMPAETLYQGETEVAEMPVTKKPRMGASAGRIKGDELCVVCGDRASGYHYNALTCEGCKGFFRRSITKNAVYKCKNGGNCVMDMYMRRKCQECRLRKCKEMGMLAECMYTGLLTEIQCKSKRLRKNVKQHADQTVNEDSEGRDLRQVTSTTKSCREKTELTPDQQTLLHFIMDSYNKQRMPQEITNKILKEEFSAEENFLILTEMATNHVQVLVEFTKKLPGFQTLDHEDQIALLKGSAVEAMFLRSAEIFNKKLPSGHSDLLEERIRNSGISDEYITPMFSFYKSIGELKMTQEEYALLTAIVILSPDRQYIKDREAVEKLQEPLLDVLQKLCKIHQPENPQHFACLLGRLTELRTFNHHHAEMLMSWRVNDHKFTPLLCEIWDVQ

CCCCC(CC)COC(=O)OOC(C)(C)C (centres undefined)
inactive: Potency [2] | Potency [4] | Potency [6]
inconclusive: ratio activity, negative = inhibition [1] -1.63% | Potency [3] 43.6 µM [falling, partial curve] | activity change, negative = inhibition [5] 1.2%

Oc1cccc(Cl)c1Cl
inactive: Potency [7] | Potency [8] | Potency [10] | Potency [6]
inconclusive: Potency [1] 12.3 µM [activator, partial curve, poor fit] | Potency [9] 61.9 µM [rising, single point]

CC(=O)c1cc2c(cc1C)C(C)(C)C(C)CC2(C)C (centres undefined)
inconclusive: ratio activity, negative = inhibition [1] 18.3% | activation [7] 0% | Potency [11] 61.6 µM [cytotoxic] | activity change, negative = inhibition [12] -15.3% | activation [13] 2.61%
inactive: Potency [6]

O=c1oc2ccccc2c(O)c1Cc1c(O)c2ccccc2oc1=O
inconclusive: Potency [1] 1.68 µM [rising, full curve] | Potency [8] 5.96 µM [cytotoxic, full curve] | Potency [3] 0.75 µM [activator] | Potency [14] 9.44 µM [cytotoxic, full curve] | Potency [9] 29.8 µM [rising, partial curve, poor fit] | Potency [4] 11.9 µM [cytotoxic] | ratio activity, negative = inhibition [10] -25.9% | Potency [12] 3.76 µM [inhibitor, full curve] | Potency [15] 6.68 µM [cytotoxic, partial curve, poor fit] | Potency [16] 4.22 µM [falling, full curve] | activation [13] -3.24% | Potency [18] 13.4 µM [cytotoxic, full curve, poor fit] | activation [6] -4.71%
inactive: Potency [17]
active: Potency [7] 7.5 µM

CCOC(=O)OC1=C(c2cc(C)ccc2C)C(=O)NC12CCC(OC)CC2 (centres undefined)
inactive: Potency [8]
inconclusive: ratio activity, negative = inhibition [1] 3.26% | Potency [2] 0.195 µM [rising, partial curve, poor fit] | ratio activity, negative = inhibition [10] 18.3% | activity change, negative = inhibition [5] 5.6% | Potency [6] 17.4 µM [rising, partial curve]

Reference: PubChem BioAssay (Tox21)
